The whole screen tested about 48,000 compounds, of which about 1,200 (2.5%) were called active. Another 2% or so got no clear call; they are omitted.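 How the source made its calls: active means activation of at least 60% and not above a set upper limit (about 1 call in 100 departs from these limits); inconclusive means activation of 40% to 60%, or above that upper limit; inactive means activation under 40%.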 The list shows a part of the results.

This passage reports activation results from PubChem BioAssay AID1346428 (National Center for Advancing Translational Sciences (NCATS), 2018).

Chain of UniProt O75388 (O75388 whole entry, looked up, the tested form may be a part): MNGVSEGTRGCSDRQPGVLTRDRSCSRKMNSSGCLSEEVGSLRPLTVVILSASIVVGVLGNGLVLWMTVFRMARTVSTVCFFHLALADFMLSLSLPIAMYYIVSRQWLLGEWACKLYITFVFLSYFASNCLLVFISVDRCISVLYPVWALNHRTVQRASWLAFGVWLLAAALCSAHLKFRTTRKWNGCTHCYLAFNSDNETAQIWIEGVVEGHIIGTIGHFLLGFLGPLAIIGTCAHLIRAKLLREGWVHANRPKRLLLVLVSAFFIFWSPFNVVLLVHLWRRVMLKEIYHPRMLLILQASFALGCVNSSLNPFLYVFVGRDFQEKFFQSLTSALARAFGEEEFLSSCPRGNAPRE

This assay concerns the target Probable G-protein coupled receptor 32 (Homo sapiens) (UniProt O75388). Description: qHTS for Agonists of Human Resolvin D1 Receptor DRV1. The settings on record: CHO-K1 GPR32 beta-arrestin PathHunter luminescence, 90 min; at 76.9 µM; active compounds read high; zero percent set by DMSO-only wells. The method, boiled down:
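PathHunter enzyme-fragment complementation, CHO-K1 GPR32 stable line; 2,500 cells/well, overnight attach; cpd 90 min 37 °C 5% CO2; detection reagent 1 h RT; chemiluminescence. DMSO = EC0.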
Regarding `COc1cc(NS(=O)(=O)c2ccc(N)cc2)ncn1`, the activation was inactive: -1.76%.

In the case of `O=C(c1ccccc1)n1nc(-c2ccco2)nc1NCc1ccccc1Cl`, the activation was inactive: -1.32%.

Take `CCc1ccccc1NC(=O)Nc1cc(C(=O)NCc2ccc(OC)cc2)ccc1N1CCCC1`: the activation was inactive: -17%.

On to `Cc1noc(C)c1S(=O)(=O)N1CCCC(C(=O)Nc2ccc(C(C)C)cc2)C1` (stereo not drawn), for which the activation is inactive: -2.16%.

Consider `COc1cccc(-n2cc(C(=O)Nc3cc(C)c(Cl)cc3OC)c3ccccc3c2=O)c1`, for which the activation is inactive: -20.8%.

For the compound `CCOc1ccc(CCNC(=O)C2CCC(CNS(=O)(=O)c3ccc(Cl)cc3)CC2)cc1OCC` (stereo not drawn), the activation is inactive: 44.9%.

`CC1(C)O[C@@H]2C[C@H]3[C@@H]4C[C@H](F)C5=CC(=O)C=C[C@]5(C)[C@@]4(F)[C@@H](O)C[C@]3(C)[C@]2(C(=O)CO)O1`: the activation was inactive: 0.637%.

On to `CCOCCCNC(=O)c1cc2c(=O)[nH]c3ccccc3c2n1C`, for which the activation was inactive: 3.59%.

`CCOc1ccc(CNC(=O)C2CCN(c3nn4c(=O)cc(C)nc4s3)CC2)cc1`: the activation was inactive: -12.7%.

For `Cc1cccc(Cn2cc(C(=O)Nc3ccc(S(N)(=O)=O)cc3)ccc2=O)c1`, the activation is inactive: 45.2%.

As to `O=C(C1CCN(S(=O)(=O)Cc2ccccc2)CC1)N1CCN(c2ccccc2F)CC1`, the activation was inactive: 2.24%.

Turning to `CCc1ccccc1NC(=O)C(C)n1nc(-c2ccc(C)c(C)c2)ccc1=O` (stereo not drawn), the activation was inactive: 5.97%.

For the compound `Cc1ccc(C)c(Nc2nc3nonc3nc2Nc2cccc(C)c2C)c1`, the activation is inactive: -8.15%.

`COc1ccc(Cl)cc1NC(=O)N1CCC(CN2CCCCCC2)CC1`: the activation is inactive: -14.7%.

As to `CCCn1c2ccccc2c2cnn(CC(=O)NCc3cc(OC)ccc3OC)c(=O)c21`, the activation is inactive: -12.8%.

For `CC1=C(C(=O)OCC2CCCCC2)C(c2ccc(Cl)cc2Cl)CC(=O)N1` (stereo not drawn), the activation was inactive: -1.48%.

Consider `CSc1cccc(NC(=O)Cn2cnc(S(=O)(=O)N3CCCC3)c2)c1`, for which the activation is inactive: 13.2%.

Consider `O=C(Nc1ccccc1OCc1cc(=O)n2ccccc2n1)c1ccccc1F`, for which the activation was inactive: -7.94%.

As to `CCCCNC(=O)CN1C(=O)COc2ccc(S(=O)(=O)N3CCCC3)cc21`, the activation was inactive: -11.4%.

For `COc1ccc(CNC(=O)CN2C(=O)CSc3ccc(S(=O)(=O)N4CCCC4)cc32)cc1`, the activation was inactive: -19.4%.

Take `CCOC(=O)c1cccc(NC(=O)C(Cc2ccccc2)NS(=O)(=O)c2cccc3nsnc23)c1` (stereo not drawn): the activation was inactive: -21.2%.

Turning to `COC(=O)c1ccc(Cn2nnc3sc4c(c3c2=O)CCCC4)cc1`, the activation is inactive: -10.6%.

On to `COc1cc2nc(Nc3ccc(F)cc3)nc(N)c2cc1OC`, for which the activation is inactive: 22.4%.
